Measurements: PubChem BioAssay AID1508624 (National Center for Advancing Translational Sciences (NCATS), 2021)
The whole screen tested about 48,000 compounds, of which about 120 (0.25%) were called active. Inconclusive results (about 4%) are left out. Calls come from the whole dose curve; as a rule, active = well fitted activation curve with a large enough effect; inconclusive = small, poorly fitted or top-dose-only effect, or another doubt; inactive = no such curve, though single readings can be large or run the other way. This is one part of the list.

Test: Primary qHTS for Identification of Small Molecule Activators of Huntingtin-Antisense Promoter Activity; note: nearly all actives have a fitted effect of over 55% in size
Conditions: HEK293 HTT-AS promoter firefly luciferase reporter (activity 0% = vehicle and -100% = no light), 24 h; series mostly up to 57.5 µM; activity change, positive = activation: at the top concentration
Outline: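 Firefly luciferase signal from promoter-reporter HEK293 cells was scaled between vehicle (0%) and zero RLU (-100%). Compounds were tested at final concentrations of up to 57.5 uM over 24 h at 37 degrees C. PTC124 at 50 uM final served as control inhibitor.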

Activity change, positive = activation, inactive:
C=Cc1ccc(CSc2nnc(C)n3c2cc2occc23)cc1 -7.83%, CC(C)c1ccccc1NC(=O)CN(c1ccccc1)S(=O)(=O)N(C)C -3.69%, Cc1ccc2c(c1)CC(C)N2S(=O)(=O)c1nnc(NC(=O)c2ccccc2F)s1 (configuration not stated) -35.8%, O=C(Cn1ccn(-c2cccc(Cl)c2)c(=O)c1=O)c1ccc(F)cc1 -5.71%, O=C(NCCCN1CCN(c2ccc(F)cc2)CC1)c1sc2ncccc2c1-n1cccc1 -13.3%, CCOc1ccc(CNC(=O)c2[nH]c3ccccc3c2Sc2ccc(C)cc2)cc1 -3.55%, Cc1ccc(NC(=O)CCS(=O)(=O)c2ccc(Br)cc2)c(C)c1 -10.7%, CCOC(=O)c1cc(-c2ccccc2)n(CCC(=O)Nc2ccc(C)cc2Cl)c1C -16.4%, CSc1ccc(C(=O)c2[nH]c(=O)[nH]c2C)cc1 23.2%, COc1ccc(OC)c(S(=O)(=O)N2Cc3ccccc3CC2C(=O)Nc2ccc(Cl)cc2)c1 (configuration not stated) -32.9%, Cc1ccc2c(c1)C(=O)C(=O)N2Cc1ccc(OC(C)C)cc1 -41.6%, CCOc1ccc(-c2nn(-c3ccccc3)cc2C2NC(=O)NC(C)=C2C(=O)OC(C)C)cc1C (configuration not stated) -33.3%, Cc1ccc(-n2nc(CO)c(C(=O)NCCCCc3ccccc3)n2)cc1 -7.26%, Cc1cc(C)cc(NC(=O)CCS(=O)(=O)c2ccc3nc(C)sc3c2)c1 -18%, O=C1C(c2ccc(F)cc2)N(Cc2ccccc2Cl)C(=O)CN1C1CCCCC1 (configuration not stated) -31.5%, CC1=C(c2ccc(C)c(C)c2)S(=O)(=O)N=C1N1CCC(C(=O)Nc2cccc(F)c2)CC1 -24.9%, COc1ccccc1NC(=O)Cn1c(=O)n(-c2cccc(Cl)c2)c(=O)c2c1c1cc(C)ccc1n2C -14.8%, Cc1cc(C)cc(Nc2nnc(-n3nc(C)cc3C)c3ccccc23)c1 -16.9%, CCc1ccccc1NC(=O)CSc1ncc(S(=O)(=O)c2ccccc2)c(=O)[nH]1 -3.55%, Cc1cccc(OCC(=O)Nc2ccc(Cl)c(-c3nc4ccccc4[nH]3)c2)c1 -14.4%, CC(C)(S)[C@@H](N)C(=O)O -92.8%, Cc1ccc2c(CC(=O)N(Cc3ccc(Cl)cc3)Cc3ccco3)coc2c1 -30.6%, Cc1ccccc1Nc1cc(C(=O)NCCc2ccc(Cl)cc2)c2ccccc2n1 -39.7%, COc1cccc(C(=O)Nc2c(C(=O)c3ccc(F)cc3)oc3ccccc23)c1 -10.3%, COc1cc(C2c3c(oc4ccc(C)cc4c3=O)C(=O)N2Cc2ccccc2)ccc1O (configuration not stated) -11.6%, Cc1oc(-c2ccc(Cl)cc2)nc1CSCC(=O)NCc1ccccc1Cl -39.3%, CC(CNC(=O)Cn1c(-c2cccs2)cc2ccccc21)c1ccccc1 (configuration not stated) -36.8%, CCC(=O)N1CCc2cc(Br)cc(S(=O)(=O)N3CCCC(C(=O)NCc4ccc(OC)cc4)C3)c21 (configuration not stated) -21.5%, COC(=O)Cc1c(C)c2ccc3c(c2oc1=O)CN(Cc1ccccc1OC)CO3 -14%, CCCOc1ccc(C2c3c(-c4ccccc4O)n[nH]c3C(=O)N2CCCOCC)cc1OCC (configuration not stated) -25.7%, O=C(Nc1cccc(F)c1)c1cccc2c1C(=O)N(C1CCCCC1)C2 -16.2%, Cc1ccc(Cl)cc1N1CCN(CCCNC(=O)c2nnc(Cc3cccc(Cl)c3)o2)CC1 -46.1%, CCC(=O)N1CCCc2cc(S(=O)(=O)N3CCC(C(=O)Nc4ccccc4CC)CC3)ccc21 -46.5%, O=C(Cn1cc(C(=O)C2CC2)c2ccccc21)Nc1ccc(Br)cc1 -18.8%, COc1ccccc1N1CCN(c2ccc(-c3nc(-c4ccccc4)no3)cc2[N+](=O)[O-])CC1 -7.14%, Cc1ccc(C)c(Cn2c(=O)n(CCCCCC(=O)NCc3ccc4c(c3)OCO4)c(=O)c3sccc32)c1 -31.5%, CC(=O)c1ccc(NC(=O)CCCc2nc(-c3cccc(C)c3)no2)cc1 -13.9%, Cc1c(C)n(Cc2ccc(F)cc2)c2ccc(C(=O)Nc3ccc(Cl)cc3)cc12 -30.5%, O=C(CC1C(=O)N(c2ccccc2)C(=O)N1Cc1ccc2c(c1)OCO2)Nc1ccccc1 (configuration not stated) 0%, O=C1CC(c2nnc(Cc3ccccc3Cl)o2)CN1c1ccccc1 (configuration not stated) -17.1%, Cc1ccc(-c2cc3c(n2-c2ccccc2F)CC(C)(C)CC3=O)cc1 -1.58%, CCOC(=O)c1ccc(CN(Cc2ccccc2C)S(=O)(=O)c2ccc(F)c(C(=O)Nc3cccc(OC)c3)c2)cc1 -21.5%, O=C(CN1C(=O)CSc2ccc(S(=O)(=O)N3CCCC3)cc21)NCc1ccc(Cl)cc1 -20.9%, COc1ccc(NC(=O)CN2C(=O)COc3ccc(S(=O)(=O)N4CCCCC4)cc32)cc1Cl -19.4%, COc1ccc(NC(=O)c2oc3ccccc3c2NC(=O)Cc2cccs2)cc1 1.28%, CCOC(=O)c1cnc2ccc(C)cc2c1NCCc1ccc(OC)c(OC)c1 2.14%, COc1ccc(C)cc1NC(=O)N1CCN(c2cc(-c3noc(C)n3)ccc2C)CC1 -43.3%, Cc1cccc(N2CCN(C3(c4ccccc4)C(=O)c4ccccc4C3=O)CC2)c1C 3.49%, Cc1ccc(S(=O)(=O)N2CCOCC2)cc1C(=O)Nc1ccccc1C(=O)O -12.2%, O=S(=O)(Nc1ccc2nc(-c3cccc(Cl)c3)oc2c1)c1ccccc1 4.19%, COc1ccc(CCNC(=O)c2c(C)nn(-c3ccc(F)cc3)c2-n2cccc2)cc1OC -34.3%, Cc1ccc2onc(CC(=O)N(C)c3ccccc3)c2c1 -3.25%, CC(=O)N[C@@H](CCC(N)=O)C(=O)O -3.89%, O=S(=O)(Nc1nc2n(n1)C(c1ccc(F)cc1)C=C(c1ccccc1)N2)c1ccc(Cl)cc1 (configuration not stated) -19.5%, CC(C)Sc1ncc(Cl)c(C(=O)Nc2nnc(C(C)C)s2)n1 23%, CCc1ccc(NC(=O)Cn2c(=O)oc3cc(S(=O)(=O)N4CCCCCC4)ccc32)cc1 -48.8%, Cc1onc(-c2ccc(F)cc2F)c1C(=O)Nc1cccc(C(F)(F)F)c1 -27.9%, CN(C(=O)C(=O)Nc1ccc2nc3n(c(=O)c2c1)CCCCC3)c1cccc(C(F)(F)F)c1 -20.5%, CCc1ccc(CNC(=O)c2cc(-c3ccc(Br)s3)nc3ccccc23)cc1 2.18%, O=C(Nc1ccccc1)c1cccc(S(=O)(=O)Nc2cccc(F)c2)c1 -21.4%, COc1cccc(-c2ccc3c(N)c(C(=O)NCc4ccc(Cl)cc4)sc3n2)c1 -29%, CCCNC(=O)C1CCN(c2ncnc3c2nc2n3CCCCC2)CC1 -3.19%
